In paper PMC12136788:
This is one part of the list.

B1: chr11:118751385:118751486:-|3pUTR|ENSG00000110367|msi1|FALSE|unique (ssRNA)
RNA: GGGAGUUCUACAGUCCGACGAUCUUGAAGUCUCUUCCCUUUCUACCCAGUACUCGAGCCCAGGGCUAGAAGUUGAAACUCACUAGUAAUGUUAAACACCAUUUUUUUUUUCUUUUUGGGGAGGAGUUGAUAUGCAACUGCAGUCAACAGAGGAUUGAGCAUCA
B2: chr12:42105817:42106069:-|CDS|ENSG00000151233|control|control|control (ssRNA)
RNA: GGGAGUUCUACAGUCCGACGAUCAUUGCUGCAAUGGCACCAGAACAUGAGGAACCUCGAAUAGGAUGGUAUAAUCGCUUUGCUAGGCAUCCAUAUUAUGGAAAAACUGGAGUAAACUCUGGAGUUAUGUUGAUGAACAUGACUCAACAGAGGAUUGAGCAUCA
B3: ENSG00000070961:be:win_5051|3pUTR|ENSG00000070961|bound_else_gene|NA|bound_elsewhere_windowed (ssRNA)
RNA: GGGAGUUCUACAGUCCGACGAUCUUGAAUUUAGUUUGUCUAAAAUAGUCUCACAGGUAAAAAACAUAACAACAAUGACCACCAUUGUCUUUGAUACAUUUAUUUUAAUUCUUAAGUGGCCAAAUAACAGAUUAGGUAAAAUGACAACAGAGGAUUGAGCAUCA
B4: chr7:127580627:127582013:-|three_prime_utr|ENSG00000179562|control|control|control (ssRNA)
RNA: GGGAGUUCUACAGUCCGACGAUCAGGAGUCUUCAAUGUGGGAAGGGAUUUUCUGCCAAAUGCCAUUAAUGCUGCUUUAUCCUUAGGCCCUAGAGAUACUGAAAGUCCUGGGGCAGUAUCUUCUGAUGGUGUGCAUGUGAGGAGCAACAGAGGAUUGAGCAUCA
B5: chr12:111683145:111683307:-|CDS|ENSG00000089234|control|control|control (ssRNA)
RNA: GGGAGUUCUACAGUCCGACGAUCAAAGACGACACUAGCCUCAGCUGUAGCCUGUUUAGAAGGCAAGUCACCAGGAGAGAAAGUAGCGAUUAUCCAUCAGCAUCUCGGCCGUCGAGAAAUGACAGAUGUGAUCAUUGAGACCAUCAACAGAGGAUUGAGCAUCA
B6: chr2:96373863:96373964:+|3pUTR|ENSG00000121152|unk|FALSE|unique (ssRNA)
RNA: GGGAGUUCUACAGUCCGACGAUCUAGAACUGGCAAAAUAUUUGAGUGUCCACUAGAUGAGUAUCAGACCUAGUCCUUACCCUUAGGGGGAUGCAGUCCUGGUUGUUAUCCAGGAUACACACCUGUCAGUAUAAGGCAGAAGAUCAACAGAGGAUUGAGCAUCA
B7: chr8:7990417:7990620:-|CDS|ENSG00000205989|control|control|control (ssRNA)
RNA: GGGAGUUCUACAGUCCGACGAUCGAUGUCUGCAACAUAGUAGAAGAUCAAAUUGGUGCCUGCCGAAGAAGGAUGAAGUGCUGUAGAGCAUGGUGGAUUUUAAUGCCAAUUCCAACACCACUUAUCAUGUCAGAUUAUCAAGAACAACAGAGGAUUGAGCAUCA
B8: chr7:6403584:6403671:+|3pUTR|ENSG00000136238|msi1_unk|FALSE|overlapping (ssRNA)
RNA: GGGAGUUCUACAGUCCGACGAUCUUUUCUAGUAACUAGGUGUAAAAAUCAUGUGUUGCAGCUUUAUAGUUUUUAAAAUAUUUUAGAUAAUUCUUAAACUAUGAACCUUCUUAACAUCACUGUCUUGCCAGAUUACCGACACUGCAACAGAGGAUUGAGCAUCA
B9: chr2:218454035:218454136:-|3pUTR|ENSG00000135913|msi1|total|mutant (ssRNA)
RNA: GGGAGUUCUACAGUCCGACGAUCGAGAUUUCUUCACACAGUAUGUUCAUCAUAUAUCAUCAUCAUUAUUAUGGUGGUAAAGACCGAAUCUUUUUUCUUUUUUGUCAUUCUGCCAUGGAGCAGCAUUACCCUAAUGGAUUGCAACAACAGAGGAUUGAGCAUCA
B10: chr4:140153917:140154018:-|5pUTR|ENSG00000196782|msi1|total|mutant (ssRNA)
RNA: GGGAGUUCUACAGUCCGACGAUCUUUGCAGUCGCCUCGGACUGUCCAUGUGUUUACUUCCCCCAGCCCGAGGAUUCGAUAUCCCGGUUCCUGUGAAAUGCAACUGAGCAGCCAAAGUACUUUGAGAACACGGGGCGGCAUAAACAACAGAGGAUUGAGCAUCA
B11: chr14:102225094:102226328:-|three_prime_utr|ENSG00000080823|control|control|control (ssRNA)
RNA: GGGAGUUCUACAGUCCGACGAUCCCUCCCAUCUGCUCUGCUGUCCCCACACCUGCGGUGCAGCCAGCCUGCCACAAGGCAGCUAGAGUCCAGCUAGACCCACCCCUGGCACGGCCGACCUCUUCCUGGCUUCUUCUGGGCCUACAACAGAGGAUUGAGCAUCA
B12: chr6:105097214:105097376:-|3pUTR|ENSG00000112276|msi1|total|mutant (ssRNA)
RNA: GGGAGUUCUACAGUCCGACGAUCCAUGCCUUGGUUUCCUCUCCCUUCCCUCUUUCCAAUCCUGGUUUCCUAACCUCCUCUUGCCGUAAUUCUCAACUCAACUCAAAGUCCCAAGAAUUUGGAAUGGCCGGAUGCUGUGCGGGGCAACAGAGGAUUGAGCAUCA
B13: chr10:73917138:73917420:+|3pUTR|ENSG00000122861|msi1|total|mutant (ssRNA)
RNA: GGGAGUUCUACAGUCCGACGAUCGGAAUGUAUUAUUCUGCAGCAUGACCUGUGACCAGCACUGUCUCAGUUUCACUUUCACACCGAUGUCCCUUUCUUGGCCAGUUAUCCCUUCCUUUCCGCCCCGUUCAUCCAAUCCUCACUCAACAGAGGAUUGAGCAUCA
B14: chr4:186588032:186588133:-|3pUTR|ENSG00000083857|msi1|FALSE|unique (ssRNA)
RNA: GGGAGUUCUACAGUCCGACGAUCUUUUUUUACUAUAACCAGGGUUUCAUUCUGUCUUUUUCCACUGAAGUGUGACAUUUUGUUAGUACAUUUCAGUGUAGUCAUUCAUUUCUAGCUGUACAUAGGAUGAAGGAGAGAUCAGAUCAACAGAGGAUUGAGCAUCA
B15: chr11:69653362:69653473:+|3pUTR|ENSG00000110092|msi1_unk|total|mutant (ssRNA)
RNA: GGGAGUUCUACAGUCCGACGAUCACUGCCAUGUACCCGUUUCCGUUUUCUCUCCGAACAUUGUAUUACAGAUGCCUUUUUUGCCGUUUUUUUUUUUUUUAUGUGAUCAAUUUUGACUUAAUGUGAUUACUGCUCUAUUCCAAACAACAGAGGAUUGAGCAUCA
B16: ENSG00000107863:be:win_5001|CDS|ENSG00000107863|bound_else_gene|NA|bound_elsewhere_windowed (ssRNA)
RNA: GGGAGUUCUACAGUCCGACGAUCAAAUUCUGAAGGAAGUGAAUUAAGUUGCACCGAGGGAAGUUUAACAUCAAGUUUAGAUAGCCGGAGACAGCUCUUCAGUUCCCAUAAACUCAUCGAAUGUGAUACUCUUUCCAGGAAAAACAACAGAGGAUUGAGCAUCA
B17: ENSG00000070961:be:win_3951|3pUTR|ENSG00000070961|bound_else_gene|NA|bound_elsewhere_windowed (ssRNA)
RNA: GGGAGUUCUACAGUCCGACGAUCAUUAGCAGAGCUUUAGUUUAUCUCAGUCCUGGAUGGGAGAGAGAGGGAGGAGUAAAACUGGGCAAGACAAAGAGCCCUGGAUCGUUGAAUUGAUAGUUUAAUUUCUGCUGUUGGCUGUUACAACAGAGGAUUGAGCAUCA
B18: chr2:216672374:216672548:-|3pUTR|ENSG00000115461|msi1|FALSE|unique (ssRNA)
RNA: GGGAGUUCUACAGUCCGACGAUCUUUUUCUUUUUUUUUUUGAAGACAGCAAUAACCACAGUACAUAUUACUGUAGUUCUCUAUAGUUUUACAUACAUUCAUACCAUAACUCUGUUCUCUCCUCUUUUUUGUUUUCAACUUUAACAACAGAGGAUUGAGCAUCA
B19: chr2:5695263:5695412:+|3pUTR|ENSG00000176887|msi1_unk|FALSE|overlapping (ssRNA)
RNA: GGGAGUUCUACAGUCCGACGAUCUGGUGAUAUAGACCUCAGAGCUGUUAUCUUAGUUUAAAGAUUGUAUAUGUACUGUACUAUAGUAGGACUUUAUGUAUCUCAUACGCUGUGAUGUGGAUGGGGCCCCAGAUGGAAGGUUUGCAACAGAGGAUUGAGCAUCA
B20: chr13:28712679:28713550:-|CDS|ENSG00000139508|control|control|control (ssRNA)
RNA: GGGAGUUCUACAGUCCGACGAUCUGAAGUUUUUAUAGGUUAUGGAUCAGCUUUGGGUAGUGCCUCUUUUUUGACUAGUUUCCUAGGAAUAUGGCUUUUUUCUUAUUGUAUGGAAGAUAUUCAUAUGGCCUUCAUUGGGAUUUUCAACAGAGGAUUGAGCAUCA
B21: chr13:110149936:110150037:-|3pUTR|ENSG00000187498|msi1|total|mutant (ssRNA)
RNA: GGGAGUUCUACAGUCCGACGAUCUUCUUGUAUUAUAAUUAAUUUUCUACCCCCAGAGAUAAAUGUUUGUUUAUAUCACUGUCCCGCUGUUUCAAAAUUCCGGUCCCUUGGUCUGUACAAAUAACCGCAAUGUAAAAAUGGUUUCAACAGAGGAUUGAGCAUCA
B22: chr1:119916538:119916684:-|CDS|ENSG00000134250|unk|FALSE|bound_elsewhere (ssRNA)
RNA: GGGAGUUCUACAGUCCGACGAUCAGAGACACCUCUGUUUCUUGCUGCCCGGGAGGGGAGCUAUGAAGCAGCCAAGAUCCUGUUAGACCAUUUUGCCAAUCGAGACAUCACAGACCAUAUGGAUCGUCUUCCCCGGGAUGUGGCCAACAGAGGAUUGAGCAUCA

What follows are binders tested against MSI1 full-length (mouse, UniProt Q61474 1-362) (assay: nsRBNS (natural sequence RNA bind-n-seq); RBNS binding buffer (assumed for nsRBNS): 25 mM Tris pH 7.5, 150 mM KCl, 3 mM MgCl2, 0.01% Triton X-100, 500 ug/ml BSA, 20 U/ml SUPERase-In, 4 C; UNK is unkempt and MSI1 is Musashi-1; names of the RNAs are library labels; protein concentration not given here; high values mean tight binding).
UniProt Q61474, sequence (Q61474 whole entry): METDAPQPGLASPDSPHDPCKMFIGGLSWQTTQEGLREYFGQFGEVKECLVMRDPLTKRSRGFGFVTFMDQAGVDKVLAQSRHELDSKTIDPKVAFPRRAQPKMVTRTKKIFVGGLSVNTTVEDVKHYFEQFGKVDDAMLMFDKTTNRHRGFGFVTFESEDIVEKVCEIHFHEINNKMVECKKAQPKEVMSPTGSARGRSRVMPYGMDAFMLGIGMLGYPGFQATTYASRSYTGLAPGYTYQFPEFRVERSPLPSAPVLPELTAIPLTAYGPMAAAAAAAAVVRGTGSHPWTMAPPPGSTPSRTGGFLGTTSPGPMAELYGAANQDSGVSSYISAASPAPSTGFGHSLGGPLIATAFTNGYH

Binder | binding signal
B1 | 1.4 enrichment R
B2 | 0.381 enrichment R
B3 | 5.22 enrichment R
B4 | 0.694 enrichment R
B5 | 1.34 enrichment R
B6 | 0.774 enrichment R
B7 | 0.446 enrichment R
B8 | 4.84 enrichment R
B9 | 0.306 enrichment R
B10 | 0.335 enrichment R
B11 | 0.575 enrichment R
B12 | 0.628 enrichment R
B13 | 0.747 enrichment R
B14 | 2.79 enrichment R
B15 | 1.65 enrichment R
B16 | 0.365 enrichment R
B17 | 1.71 enrichment R
B18 | 21.2 enrichment R
B19 | 2.31 enrichment R
B20 | 2.38 enrichment R
B21 | 3.28 enrichment R
B22 | 0.541 enrichment R
